# Test results from PubChem BioAssay (NCATS).
# This list was built around the results that the source calls inconclusive (neither active nor inactive); the mix of calls is not that of the screen. No potency is given beside an inconclusive call; the fits are too rough. Calls of active or inactive are those of the source. Calls follow the shape of the dose curve; as a rule, active = well fitted inhibition curve with a large enough effect; inconclusive = small, poorly fitted or top-dose-only effect; inactive = flat fitted curve, though single readings scatter.
# Target: Luciferin 4-monooxygenase (Photinus pyralis) (UniProt P08659)
# Assay: Biochemical firefly luciferase enzyme assay for NPC (AID 624030); also: nearly all actives have a fitted effect of over 70% in size
# Settings: purified P. pyralis luciferase, luminescence, 5 min; series mostly up to 58.6 µM
# Text: Charcot-Marie-Tooth-Association [CMTA] National Center for Advancing Translational Sciences [NCATS] Charcot-Marie-Tooth (CMT) disease was first characterized by Jean-Martin Charcot and Pierre Marie in France and, independently, by Howard Henry Tooth in England in 1886. CMT is one of the most common inherited neurological diseases, affecting approximately 1 in 2,500 Americans. […] The most prevalent type of CMT is known as CMT1A and caused by a duplication of the PMP22 gene which leads to over-expression of this protein. PMP22 is a glycosylated intrinsic membrane protein accounting for 2-5% of the myelin protein content, and its over-expression results in demyelination and subsequently axonal loss. A pair of cellular transcription-based assays was developed in the S16 rat Schwann cell lines (Hai, M., et al., 2002) stably transfected with orthogonal reporters - firefly luciferase (Fluc) and beta-lactamase (beta-Lac) - whose expression is driven by an intronic regulatory element of the PMP22 gene (Jones, E.A., et al., 2011) to recapitulate endogenous expression of PMP22. A comprehensive library of approved drugs, the NCGC Pharmaceutical Collection (Huang, R., et al., 2011), was screened in the cross-validating platform of the orthogonal reporter assays to identify drug modulators inhibitory towards PMP22 expression. A set of counter-screens was devised to address non-specific activity of the library. An ATP-dependent CellTiter-Glo assay (developed by Promega Corp) was utilized to control cell viability. In addition, biochemical Fluc enzyme assay was performed to assess direct inhibition of the Fluc enzymatic activity. References Hai, M., Muja, N., DeVries, G.H., Quarles, R.H. and Patel, P.I. Comparative analysis of Schwann cell lines as model systems for myelin gene transcription studies. J Neurosci Res, 2002. 69(4): pp 497-508 Huang, R., Southall, N., Wang, Y., Yasgar A., Shinn P., Jadhav, A. , Nguyen, D.-T. and Austin, C.P., The NCGC pharmaceutical collection: a comprehensive resource of clinically approved drugs enabling repurposing and chemical genomics. Sci Transl Med, 2011. 3(80): p. 80ps16.
# Compounds were transferred to the plates in 23nl, and one microliter/well luciferase enzyme-buffer solution (10 nM P. pyralis luciferase and 50 mM Tris Acetate final concentrations) was dispensed yielding a final reaction volume of […]. Luciferase luminescence was measured by a ViewLux plate reader within 5 minutes of enzyme-buffer addition. The % activity was determined by normalizing to the average readings of PTC124 (a positive control) relative to DMSO (0% Activity). The concentration-effect curves were then classified based on curve quality (r2), response magnitude and degree of measured activity.
# Potency is read from the fitted curve at half-maximal effect; tags tell the direction and shape of the fitted curve.
# UniProt P08659, sequence (P08659 whole entry, looked up): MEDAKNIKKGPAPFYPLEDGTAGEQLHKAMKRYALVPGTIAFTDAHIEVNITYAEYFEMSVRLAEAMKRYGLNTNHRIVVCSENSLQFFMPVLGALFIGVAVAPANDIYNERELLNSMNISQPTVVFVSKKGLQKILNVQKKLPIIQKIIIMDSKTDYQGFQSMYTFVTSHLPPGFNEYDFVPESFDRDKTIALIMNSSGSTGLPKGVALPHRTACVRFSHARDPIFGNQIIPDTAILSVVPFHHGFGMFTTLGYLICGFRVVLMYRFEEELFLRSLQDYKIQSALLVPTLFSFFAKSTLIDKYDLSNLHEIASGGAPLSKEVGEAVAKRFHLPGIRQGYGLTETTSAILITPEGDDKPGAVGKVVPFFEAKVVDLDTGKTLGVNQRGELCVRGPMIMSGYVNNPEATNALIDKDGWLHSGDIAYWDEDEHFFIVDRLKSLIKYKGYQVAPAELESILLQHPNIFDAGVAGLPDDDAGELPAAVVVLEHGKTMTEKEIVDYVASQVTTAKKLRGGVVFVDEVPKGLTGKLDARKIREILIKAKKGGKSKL
row,Compound,Potency
1,Nc1ccc(C(=O)Nc2ccccc2N)cc1,inactive
2,IC(I)I,"inconclusive [inhibitor, partial curve]"
3,CC(C(=O)O)c1ccc2c(c1)CC(=O)c1ccccc1S2 (stereo not given),"inconclusive [inhibitor, partial curve, poor fit]"
4,Cc1cccc(Nc2ncccc2C(=O)O)c1C,"inconclusive [inhibitor, partial curve]"
5,O=C(Nc1cccc(C(F)(F)F)c1)c1cc(Br)cc(Br)c1O,active: 7.21 µM
6,COc1cc(/C=C/C(=O)CC(=O)/C=C/c2ccc(O)c(OC)c2)ccc1O,"inconclusive [inhibitor, partial curve]"
7,Cc1c(C)c2c(c(C)c1O)CCC(C)(COc1ccc(CC3SC(=O)NC3=O)cc1)O2 (stereo not given),"inconclusive [inhibitor, single point]"
8,C=C1C(=CC=C2CCC[C@@]3(C)[C@@H]2CC[C@H]3[C@H](C)CCCC(C)C)C[C@@H](O)C[C@@H]1O,"inconclusive [inhibitor, partial curve]"
9,OCCN1CCN(CCCN2c3ccccc3C=Cc3ccccc32)CC1,inactive
10,OCc1ccccc1O,inactive
11,CC1=C(/C=C/C(C)=C/C=C/C(C)=C/C(=O)O)C(C)(C)CCC1,active: 32.2 µM
12,Cc1ccccc1C(=O)Nc1ccc(C(=O)N2CCCC(O)c3cc(Cl)ccc32)c(C)c1 (stereo not given),"inconclusive [inhibitor, partial curve]"
13,C[Si](C)(C)O[Si](C)(C)C,inactive
14,CC(O)C(=O)O (stereo not given),inactive
15,CCCCCCCCCCCCCC[N+](C)(C)C,"inconclusive [inhibitor, partial curve]"
16,O=C1C(=O)c2ncccc2-c2cccnc21,inactive
17,O=S1(=O)OC(c2ccc(O)cc2)(c2ccc(O)cc2)c2ccccc21,"inconclusive [inhibitor, partial curve, poor fit]"
18,C[n+]1cc2c3c(ccc2c2ccc4cc5c(cc4c21)OCO5)OCO3,active: 7.21 µM
19,N[C@H](Cc1c[nH]c2ccccc12)C(=O)O,inactive
20,CC(=O)[C@]1(O)Cc2c(O)c3c(c(O)c2[C@@H](O[C@H]2C[C@H](N)[C@H](O)[C@H](C)O2)C1)C(=O)c1c(O)cccc1C3=O,"inconclusive [inhibitor, partial curve, poor fit]"

row,Compound,Potency
1,O=S(=O)(O)c1ccc2c(N=Nc3ccc(S(=O)(=O)O)c4ccccc34)c(O)c(S(=O)(=O)O)cc2c1,"inconclusive [inhibitor, partial curve]"
2,CCOC(=O)OC(C)OC1=C(C(=O)Nc2ccccn2)N(C)S(=O)(=O)c2ccccc21 (stereo not given),inactive
3,CN(C)C(=O)CCSC(SCCC(=O)O)c1cccc(/C=C/c2ccc3ccc(Cl)cc3n2)c1 (stereo not given),active: 2.87 µM
4,CC(=O)Oc1cccc(C)c1,inactive
5,O=C(O)c1cc(=O)c2c3nc4ccccc4oc-3cc(=O)c2[nH]1,"inconclusive [inhibitor, partial curve, poor fit]"
6,NC(=O)NO,inactive
7,O=C(Nc1ncc([N+](=O)[O-])s1)c1cccs1,active: 3.61 µM
8,O=S(=O)(O)c1ccc2nc(-c3ccccc3)[nH]c2c1,"inconclusive [inhibitor, partial curve, poor fit]"
9,CN=C1C=CC(=C(c2ccc(N(C)C)cc2)c2ccc(N(C)C)cc2)C=C1,active: 14.4 µM
10,COc1cc(NS(C)(=O)=O)ccc1Nc1c2ccccc2nc2ccccc12,active: 14.4 µM
11,CC/C(=C(/CC)c1ccc(O)cc1)c1ccc(O)cc1,"inconclusive [inhibitor, partial curve, poor fit]"
12,CCCCOC(=O)c1ccc(N)cc1,"inconclusive [inhibitor, partial curve]"
13,COC(=O)c1cccnc1,inactive
14,NC(=O)n1c(O)c(C(=O)c2cccs2)c2cc(Cl)ccc21,"inconclusive [inhibitor, partial curve, poor fit]"
15,Nc1ccn([C@@H]2O[C@H](CO)[C@H](O)C2(F)F)c(=O)n1,inactive
16,CCCOc1ccc2nc(NC(=O)OC)sc2c1,active: 1.14 µM
17,NNCCc1ccccc1,"inconclusive [inhibitor, partial curve]"
18,Oc1c(Cl)cc(Cl)c(Cl)c1Cc1c(O)c(Cl)cc(Cl)c1Cl,"inconclusive [inhibitor, single point]"
19,Cc1ccc(O)c2ncccc12,inactive
20,CN(C)c1ccc(C(=C2C=CC(=[N+](C)C)C=C2)c2ccc(N(C)C)cc2)cc1,active: 12.8 µM
